The target of test [1] is IncE (Ct116) (Chlamydia trachomatis (serovar D/UW-3/CX or L2)) (UniProt P0DJI4). As to the kind of experiment: two-hybrid; BACTH screen among a subset of 20 Inc proteins in E. coli DHT1: a pST25-inc bait with a pool of the pUT18C-inc plasmids, blue colonies sequenced; and pairwise co-transformations with β-galactosidase of eight colonies; interaction = activity at least 5 times the negative control.

Amino acid sequences for entries named in this document (tags omitted).
UniProt P0DJI4: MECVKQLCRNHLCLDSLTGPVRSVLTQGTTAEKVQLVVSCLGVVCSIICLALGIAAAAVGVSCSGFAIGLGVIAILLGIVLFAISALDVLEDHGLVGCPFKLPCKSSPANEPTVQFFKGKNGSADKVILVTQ
UniProt P0DJI5: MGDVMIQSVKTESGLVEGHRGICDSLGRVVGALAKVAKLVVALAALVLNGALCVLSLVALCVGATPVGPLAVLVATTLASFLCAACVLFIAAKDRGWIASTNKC
UniProt O84008: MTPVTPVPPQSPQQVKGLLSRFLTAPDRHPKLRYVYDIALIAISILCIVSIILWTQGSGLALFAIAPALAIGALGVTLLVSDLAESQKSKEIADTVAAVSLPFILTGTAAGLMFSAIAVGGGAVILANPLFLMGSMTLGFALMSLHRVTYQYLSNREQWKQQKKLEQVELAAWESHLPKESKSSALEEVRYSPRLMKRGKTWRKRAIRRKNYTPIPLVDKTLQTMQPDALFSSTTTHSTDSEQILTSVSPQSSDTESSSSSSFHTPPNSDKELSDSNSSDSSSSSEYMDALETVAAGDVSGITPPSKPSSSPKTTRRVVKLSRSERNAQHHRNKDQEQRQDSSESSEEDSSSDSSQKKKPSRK
UniProt P0DJI3: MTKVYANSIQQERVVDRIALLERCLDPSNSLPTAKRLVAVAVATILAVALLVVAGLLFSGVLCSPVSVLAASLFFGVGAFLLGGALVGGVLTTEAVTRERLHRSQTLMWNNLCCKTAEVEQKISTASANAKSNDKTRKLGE
UniProt P0DPS6: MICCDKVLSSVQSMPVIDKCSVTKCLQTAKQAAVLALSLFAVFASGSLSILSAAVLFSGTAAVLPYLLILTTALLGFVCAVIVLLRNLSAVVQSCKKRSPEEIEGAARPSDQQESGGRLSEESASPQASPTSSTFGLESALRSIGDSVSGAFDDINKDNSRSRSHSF

In test [2] the target is IncF (Ct117) (Chlamydia trachomatis (serovar D/UW-3/CX or L2)) (UniProt P0DJI5). Described as above.
Test [3] deals with Ct005 (Chlamydia trachomatis (serovar D/UW-3/CX or L2)) (UniProt O84008). The test is described as above.
For test [4] the target is unchanged. As to the kind of experiment: two-hybrid.
Test [5] concerns the target IncD (Ct115) (Chlamydia trachomatis (serovar D/UW-3/CX or L2)) (UniProt P0DJI3). As to the kind of experiment: two-hybrid; BACTH screen among a subset of 20 Inc proteins in E. coli DHT1: a pST25-inc bait with a pool of the pUT18C-inc plasmids, blue colonies sequenced; and pairwise co-transformations with β-galactosidase of eight colonies; interaction = activity at least 5 times the negative control.

For test [6], the target named is IncG (Ct118) (Chlamydia trachomatis (serovar D/UW-3/CX or L2)) (UniProt P0DPS6). The test is described as above.
In test [7] the target is IncD (Ct115) (Chlamydia trachomatis (serovar D/UW-3/CX or L2)) (UniProt P0DJI3). As to the kind of experiment: two-hybrid.
The target of test [8] is IncF (Ct117) (Chlamydia trachomatis (serovar D/UW-3/CX or L2)) (UniProt P0DJI5). As to the kind of experiment: two-hybrid.

These are yes or no findings as the source states them, for the method shown. Some entries that bind do so weakly or less than the wild type.

As for “IncG (Ct118) (from UniProt P0DPS6 1-167)”, the binding entry in test [1] is listed as “no binding”; in test [2], “binds”.
In the case of Ct005 (from UniProt O84008 1-363), the binding entry was “binds” in test [3], “no binding” in test [1], “binds” in test [2] and “binds” in test [4].
For the substance “IncD (Ct115) (from UniProt P0DJI3 1-141)”, the binding result in test [5] is recorded as “binds”; in test [6] it was “binds”; in test [1], “no binding”; in test [2] it was “binds”; in test [7], “binds”.
Take “IncE (Ct116) (from UniProt P0DJI4 1-132)”: the binding result in test [1] is on record as “no binding”.
On to “IncF (Ct117) (from UniProt P0DJI5 1-104)”, for which the binding result in test [3] is reported as “binds”; in test [1] it was “no binding”; in test [2], “binds”; in test [8] it was “binds”.

(Values after article PMC4324299, “Characterization of interactions between inclusion membrane proteins from Chlamydia trachomatis” (Frontiers in Cellular and Infection Microbiology, 2015).)
